In the supplement of paper PMC11417369:
The other results are listed elsewhere or left out.

Tested on: PfSIP2 AP2 domain 1 (GST-tagged)
Experiment: gcPBM binding intensity (ln(normalized median fluorescence intensity)); higher = stronger DNA binding
Procedure, shortened: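 Alexa488 anti-GST antibody, scanned at 488 nm, detected GST-tagged P. falciparum DNA-binding domains that had been expressed in E. coli and incubated for 1 h on an Agilent 4 × 180k array. The array carried primer-extended double-stranded 36-bp intergenic genomic probes and negative controls. Binding intensity is the highest Masliner-normalised natural-log median intensity across replicate spots of either orientation of each probe.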

Row | Sequence | gcPBM binding intensity (ln)
1 | ATAAAATAAAAGGAATGTACTTTTTTTATTGTAATT [XGTACX_site4372] | 7.03
2 | AACAAATTGAAACAATAATTGGAAAAAAAAAAAAAA [CACACA_negctrl_site1145] | 6.84
3 | AACAAATACGGACACACACACACACTAGAAAAAAAA [CACACA_site4442] | 7.43
4 | GTAGACTGAAACCACACACACATATATATATATATT [CACACA_site605] | 7.3
5 | TAATATTTCGCACTGTGTACTGAAATATTTATATCG [XGTACX_site516] | 7.5
6 | ATAATAAGACGATAAGGTACACAAAATGTTAATATA [XGTACX_site6984] | 6.81
7 | AATAATAATAAAAATAAACACACATATATATGTATA [CACACA_site8928] | 6.91
8 | AAAGAAAGAAAGAAAAGTACTTAAACTTTTAAAAAT [XGTACX_site8531] | 6.47
9 | ATTTCTTTTGTTATAGTGCATAATATTTATGTACGT | 8.59
10 | ATATTAATATATAGAAGTACTCACATGTTAATATAA [XGTACX_site7323] | 7.14
11 | TTAAATAAATAAATAACACACATATAAAAATAACGC [CACACA_site3266] | 7.39
12 | TAACTATCATGTATTACACACAATATTTATTATATA [CACACA_site2701] | 7.14
13 | TATTCAAATTTCCACATACACACCTTGTAGATATAT [CACACA_site281] | 7.01
14 | AAGACAAATTTTACATGTACAAATATATTACATATA [XGTACX_site7060] | 7.13
15 | AAGAAAAAAAGCAACACACGTACCAACACAATTATG [CACACA_site3133] | 7.15
16 | AAACAAAATAAATATGAACACACACCGTTATGCCTT [CACACA_site8347] | 6.67
17 | TATTTGTGGATTTTTACACACATTAATATATATATA [CACACA_site3375] | 8.41
18 | AGGAAAATTATGAATGGTACAGAATATATTAGGAGA [XGTACX_site6282] | 7.15
19 | AATAAGTTATTATTTTGTACACATAAATAATACGTT [XGTACX_site814] | 6.95
20 | GCACTAAAAAAATAAACACACAGATTTATATAATAT [CACACA_site1381] | 6.83
21 | AAGGAACTATAATATACACACATAAGTGTACTTATA [CACACA_site7816] | 6.92
22 | AAAAAAACGTAAAAATGTACTTTTTGTATATAACCT [XGTACX_site7950] | 6.99
23 | ATATATGCATATATTTGTACACATTTTTTTACATAA [XGTACX_site4624] | 7.25

Row | Sequence | gcPBM binding intensity (ln)
24 | TAAAGCGACATTTGGAAAATATATATCCTAGCATTT [CACACA_negctrl_site327] | 6.73
25 | TATTCGTGCAATAGTAGTACACTTAAAAATTATTCA [XGTACX_site269] | 7.53
26 | AAAATACACAGACACACACACATATAAATAAATATT [CACACA_site7871] | 7.07
27 | ATTCGTTATAAAATATGTACATAAATATATATATAT [XGTACX_site2819] | 8.9
28 | TTATAAAATAAACTTACACACATGAAATATTATATT [CACACA_site1945] | 6.76
29 | ACATAGATGCATATCACACATAATAATATTGTCGTA [CACACA_site4819] | 7.02
30 | GTATATTTTTAAAGGTGTACTTTTTTTTTTTTTTTT [XGTACX_site721] | 7.7
31 | ATATAAAACTATAATACACACATAAAATATATTATA [CACACA_site6588] | 7.05
32 | TATATTTATTTATTCTGTACTGAAGACAGTTATGTA [XGTACX_site8857] | 6.95
33 | ATAAATATATATATAGTGCATATAAGCCACCTTCAA [GTGCAC_site9628] | 8.56
34 | TATATAATACAACATGCACACATATATATGTGAATC [CACACA_site8794] | 7.23
35 | CGTAATAAAAACAAATGTACATGACCTGGACAGGTT [XGTACX_site6560] | 7
36 | ACATATGAATATAATACACACTTGTATTATTAATAT [CACACA_site8546] | 6.85
37 | AAAAAAAAAAAAAGAGTGCAAACTATGATAATTTAA | 9.83
38 | TTACCTTTATTGTATGAACACACATAAGCTGATACA [CACACA_site9334] | 7.17
39 | TTAGTTATTAAAAAAAGTACATAAGTAGATATCATC [XGTACX_site8712] | 7.06
40 | TATATATATACATATTGTACATGTGTATATTTTTTT [XGTACX_site361] | 8.05
41 | CCATTTTTTTTATACGCACACGTCATACTTTTAAAA [CACACA_site4988] | 7.68
42 | AAAATTTAATATAATGCACACATAAAAAAAAAAAAA [CACACA_site7923] | 7.17
43 | GAATAATATGGACATACACACATATACATACATATA [CACACA_site2114] | 7.29
44 | TTATTTCATTCTTGAAGTACGTGAAAAATGAAAACA [XGTACX_site4089] | 7.24
45 | TACTAATATGATATATAAATATTGTTATATAATAAT [XGTACX_negctrl_site227] | 6.9
46 | TGAATACAAATTTACGCATGTAATTTCCAGAGGGAG [TGCATGCA_site769] | 6.93

Row | Sequence | gcPBM binding intensity (ln)
47 | AAAATAAAAGAAAAAAGTACAAAATCAGATTAATTA [XGTACX_site8413] | 6.75
48 | TATAAAATATAATTAGCACACATATATAAAATATAT [CACACA_site9355] | 6.92
49 | AATATATGTAATATATGTACTTAATTATATTTTAAT [XGTACX_site4382] | 7.05
50 | ATTTAATTTGTTCTTACACACACATATATATATATT [CACACA_site8310] | 7.2
51 | ATAATATAAATACAAACACACAATTGCGTCCACATT [CACACA_site5039] | 7.13
52 | TCATACGAAATATAAACACACATACAATAAATAAAT [CACACA_site5156] | 6.91
53 | ATTATAACCATATACACACCCATATAAATAAATATA [CACACA_site6926] | 7.19
54 | CGTTTTAATAAGATCACACATATAATATATATATAT [CACACA_site5159] | 8.73
55 | GGACAAGAATAGTGCACATGCAATGTTATTTTTTAT [TGCATGCA_site450] | 10.9
56 | ATATTAAATGTTATCACACACATAATTACTTCCATA [CACACA_site7160] | 6.89
57 | TATTAAATGGCCATTACATGCAATTATTTCTAATAA [TGCATGCA_site275] | 6.68
58 | TCAAATATATAGAATACACACATGGATATAAGAAAT [CACACA_site4065] | 7.09
59 | TTTTTTAACTGTATGATGTTATATTAAAAATAAAAA [GTGCAC_negctrl_site463] | 6.8
60 | AACGCACGAGGACACACACACATATTTATATTTATA [CACACA_site6608] | 7.24
61 | ATTTATATATAATATACACACATATAATACCCATAT [CACACA_site4548] | 7.11
62 | ATATATTTTATATAATGTACATAAACCGCACACATA [XGTACX_site6061] | 7.77
63 | TTTCAAATTTAATACACACACAAGTATATATCTATC [CACACA_site7782] | 6.98
64 | TATATTATGACCACCACACACCTATACACATAACAT [CACACA_site7199] | 7.35
65 | TTTAATATTAGCATATGTACACAAATCACACGGAAA [XGTACX_site2473] | 7.5
66 | TAATCCTTTCAATATTGTACACATTTGTGTTAAGAA [XGTACX_site1275] | 7.34
67 | ATTTAAAAAAAAAAAAAAAAAAAAAAAAAAAGAAAA [CACACA_negctrl_site722] | 6.97
68 | TTGTTTATTTGTAAAGCTAACAAGAAATGTGAATAT [CACACA_negctrl_site931] | 7.07
69 | AACGAACACTATTACACACATACATACATATGTATG [CACACA_site1859] | 7.13

Row | Sequence | gcPBM binding intensity (ln)
70 | TATACATAAAAATGATGTACATATAATATATATATA [XGTACX_site3863] | 8.71
71 | TTATTATTATAAAATTGTACTTGGTATATTAACATA [XGTACX_site5829] | 6.98
72 | ATATAAATATATTTTACACACAATGGAGAAAAAAAT [CACACA_site6450] | 7.14
73 | ATCTTGAAGATTATTTGTACACAAAAGTTAAAATAT [XGTACX_site242] | 6.94
74 | GGATTAATATATTTACCACACACCCATTTCGATTTT [CACACA_site9200] | 6.92
75 | TATATAATTATTTATTGTACACTCAAATCGATAAGG [XGTACX_site3216] | 7.21
76 | TATTTATAAATATAAACACACAACATTCTATGCATA [CACACA_site3243] | 6.96
77 | AATGTATTATGTCTTCGTACACATAAATAAATAAAT [XGTACX_site4004] | 7.03
78 | AATTATAAATTGGACACACACATAAAAAATATGTAC [CACACA_site221] | 7.19
79 | TAAAGGAAATAAAAAACATGCAAATATGAAATATAT [TGCATGCA_site745] | 6.84
80 | ATACATAATAACTCCTGTACTTAAAAATGTATATAT [XGTACX_site1071] | 7.08
81 | TAAAAAAAAACATGTGCACACGTTTTATCTACATAA [CACACA_site2336] | 8.79
82 | TTACATATTATACGAAGTACGTACAAATACTTATAT [XGTACX_site8598] | 7.16
83 | TTTTTTTTTTTTTTTTTTAAACACCTCAAAAAAAAA [CACACA_negctrl_site807] | 7.03
84 | TTGCATTGTCCATGCGCACACACTACTAGAATAATA [CACACA_site3678] | 7.84
85 | ACCTTATTTAGTTATAGTACACAAAGTATTAAACAT [XGTACX_site8418] | 7.68
86 | GCGAATAATATGGACATACACACATATACATACATA [CACACA_site2115] | 7.21
87 | TATATATATTTTTGTGTGCACTATAATATGAAAATA | 10.8
88 | TTTTTTTTTTTCTTCACACACAGTACTACTATTTAT [CACACA_site2409] | 7.04
89 | TCATTTATTGAGGAATGTACACGTAAAATTTAATAA [XGTACX_site4086] | 7.41
